# How the values were obtained:
# Ala-Ala-Tyr-Ala-Ala = tested on: T1, Ala-Ala-Tyr-Ala-Ala
# T1 sequence: AAYAA
# Ala-Leu = tested on: T2, Ala-Leu
# T2 sequence: AL
# Suc-Ala-Phe-Pro-Phe-NHNp = tested on: T3, Suc-Ala-Phe-Pro-Phe-NHNp
# T3 sequence: AFPF
substance,measurement,setting,value
DnaK (letters omitted),broadening of 2D 1H NMR exchange cross signals with 20 µM DnaK,Ala-Ala-Tyr-Ala-Ala,it is mainly the cross signal corresponding to the Ala-Tyr peptide bond that broadens under the influence of catalytic amounts of DnaK
same,relative intensity of the cross signal of the Ala-Tyr peptide bond (no addition: 3.50 ± 0.51) (relative intensity),Ala-Ala-Tyr-Ala-Ala,6.37
same,relative intensity of the cross signal of the Tyr-Ala peptide bond (no addition: 3.89 ± 0.32) (relative intensity),Ala-Ala-Tyr-Ala-Ala,3.39
same,rate constant (kobs) of the cis/trans isomerisation of Ala-Leu with 624 nM DnaK (non-catalysed reaction: 0.36 s^-1),Ala-Leu,the catalysed reaction in a constant of 0.55 s^-1
same,peptidyl-prolyl cis/trans isomerisation rate by isomer-specific proteolysis (chymotrypsin),Suc-Ala-Phe-Pro-Phe-NHNp,DnaK did not show a visible influence on the cis/trans isomerisation rate of the substrate
